Reference: the supplement of paper PMC12582362
Where a name gives a salt, the structure may show the parent alone. Screen size: about 1,500 compounds; about 30 (2%) showed activity.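 The calls were made as follows: active = robust z-score below -2; a few such results were not called.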 The list shows a part of the results.

test system: optoTopBP1 Flp-In 293 T-REx (HEK293) cells; test: light-induced TopBP1 condensate (nuclear foci) count, plate-normalised robust z-score vs non-control wells; higher = more TopBP1 condensates (negative = condensation inhibitor), active = hit call of the paper; conditions: 10 µM; incubation time 2 h

SMILES	light-induced TopBP1 condensate (z-score)
O=c1c2ccccc2[se]n1-c1ccccc1 [Ebselen]	inactive: -0.415
c1ccc2c(c1)Nc1ccccc1S2 [Phenothiazine]	inactive: -0.856
CC(=O)O[C@H]1C[C@@H]2CC[C@@H]3[C@H](CC[C@@]4(C)[C@H]3C[C@H]([N+]3(C)CCCCC3)[C@@H]4OC(C)=O)[C@@]2(C)C[C@@H]1[N+]1(C)CCCCC1 [Pancuronium bromide]	inactive: 0.347
C=CCN1CC[C@]23c4c5ccc(O)c4O[C@H]2C(=O)CC[C@@]3(O)[C@H]1C5 [Naloxone hydrochloride]	inactive: 0.122
CCCC(C)C1(CC)C(=O)NC(=O)NC1=O (stereo not given) [Pentobarbital]	inactive: -1.22
C[C@]12CCC(=O)C=C1C=C[C@@H]1[C@@H]2CC[C@@]2(C)[C@H]1CC[C@@]2(O)CCC(=O)O [Canrenoic acid potassium salt]	inactive: 1.33
Cc1cccc(C)c1NC(=O)CN1CCCC1=O [Nefiracetam]	inactive: 0.0125
CC[C@@H](C(=O)[C@@H](C)[C@@H](O)[C@H](C)[C@@H]1O[C@@H]([C@@H](CC)C(=O)O)CC[C@@H]1C)[C@H]1O[C@]2(C=C[C@@H](O)[C@]3(CC[C@@](C)([C@H]4CC[C@](O)(CC)[C@H](C)O4)O3)O2)[C@H](C)C[C@@H]1C [Salinomycin sodium]	inactive: -1.62
C[C@]12CC[C@H](O)C[C@H]1CC[C@@H]1[C@@H]2CC[C@]2(C)[C@@H](C3=CC(=O)OC3)CC[C@]12O [Digitoxigenin]	active: -2.06
CC(C)c1cccc(C(C)C)c1O [Propofol]	inactive: -0.815
Oc1ccc2c3c1O[C@H]1[C@@H](O)CC[C@@]4(O)[C@@H](C2)N(CC2CCC2)CC[C@]314 [Nalbuphine hydrochloride]	inactive: -0.29
O=C(NCNC(=O)NC1C(=O)NC(=O)N1CO)NC1C(=O)NC(=O)N1CO (stereo not given) [Imidurea]	inactive: 1.81
CC(=O)O[C@H]1CC[C@@]2(C)C(=CC[C@@H]3[C@@H]2CC[C@]2(C)C(=O)CC[C@@H]32)C1 [Dehydroisoandosterone 3-acetate]	inactive: -0.674
CN1C[C@H](CNC(=O)OCc2ccccc2)C[C@@H]2c3cccc4c3c(cn4C)C[C@H]21 [Metergoline]	inactive: 0.379
COc1cc2c(c(OC)c1OC)-c1ccc(OC)c(=O)cc1[C@@H](NC(C)=O)CC2 [Colchicine]	inactive: -1.18
C[C@]12CC[C@H](O)CC1=CC[C@@H]1[C@@H]2CC[C@]2(C)C(=O)CC[C@@H]12 [Prasterone]	inactive: 0.107
CC[N+]1(C)CCCC(OC(=O)C(O)(c2ccccc2)c2ccccc2)C1 (stereo not given) [Pipenzolate bromide]	inactive: 0.771
c1ccc2c(c1)OCC(C1=NCCN1)O2 (stereo not given) [Idazoxan hydrochloride]	inactive: -1.16
CCCCCC[C@H]1C(=O)O[C@H](C)[C@H](NC(=O)c2cccc(NC=O)c2O)C(=O)O[C@@H](C)[C@@H]1OC(=O)CC(C)C [Antimycin A]	inactive: -0.517
Cc1cc(C(C#N)c2ccc(Cl)cc2)c(Cl)cc1NC(=O)c1cc(I)cc(I)c1O (stereo not given) [Closantel]	inactive: 0.371
C[C@@H]1C[C@@H]([C@H](O)CC2CC(=O)NC(=O)C2)C(=O)[C@@H](C)C1 [Cycloheximide]	inactive: -0.598
CCC1(C2=NCCN2)Cc2ccccc2O1 (stereo not given) [Efaroxan hydrochloride]	inactive: -0.341

SMILES	light-induced TopBP1 condensate (z-score)
CC[C@@H](CO)NC(=O)[C@@H]1C=C2c3cccc4[nH]cc(c34)C[C@H]2N(C)C1 [Methylergometrine maleate]	inactive: 1.36
O=c1[nH]oc2c1CCNC2 [THIP Hydrochloride]	inactive: 2.04
CC(N)C(O)c1ccccc1 (stereo not given) [Phenylpropanolamine hydrochloride]	inactive: 0.254
O=C(CCCN1CCC2(CC1)C(=O)NCN2c1ccccc1)c1ccc(F)cc1 [Spiperone]	inactive: -0.487
O=[N+]([O-])O[C@H]1CO[C@H]2[C@@H]1OC[C@H]2O[N+](=O)[O-] [Isosorbide dinitrate]	inactive: -0.205
C=C1CC[C@@]2(O)[C@H]3Cc4ccc(O)c5c4[C@@]2(CCN3CC2CC2)[C@H]1O5 [Nalmefene hydrochloride]	inactive: -0.278
NCC1(CC(=O)O)CCCCC1 [Gabapentin]	inactive: -0.035
CC(O)(CS(=O)(=O)c1ccc(F)cc1)C(=O)Nc1ccc(C#N)c(C(F)(F)F)c1 (stereo not given) [Bicalutamide]	inactive: -0.649
CCOC(=O)c1cncn1[C@H](C)c1ccccc1 [Etomidate]	inactive: 0.346
Oc1ccc(Cl)cc1Cc1cc(Cl)ccc1O [Dichlorophen]	inactive: -0.287
CCCC(C)(COC(N)=O)COC(=O)NC(C)C (stereo not given) [Carisoprodol]	inactive: 0.417
CCC1(C)CC(=O)NC(=O)C1 [Bemegride]	inactive: -0.511
C[N+]1(C)CCCC(OC(=O)C(O)(c2ccccc2)c2ccccc2)C1 (stereo not given) [Mepenzolate bromide]	inactive: 1.82
OC(c1ccccc1)(c1ccccc1)C1CCNCC1 [Azacyclonol]	inactive: 0.431
NC(=O)OCCCc1ccccc1 [Phenprobamate]	inactive: -1.69
O=C(CCCN1CCC(n2c(=O)[nH]c3ccccc32)CC1)c1ccc(F)cc1 [Benperidol]	inactive: 0.468
C=CCC1(CC(C)C)C(=O)NC(=O)NC1=O [Butalbital]	inactive: 0.276
C[C@@H]1CN([C@H]2CC[C@](C#N)(c3ccc(F)cc3)CC2)CC[C@]1(C(=O)O)c1ccccc1 [Levocabastine hydrochloride]	inactive: -0.0572
COc1ccc(OC)c(C(O)C(C)N)c1 (stereo not given) [Methoxamine hydrochloride]	inactive: 0.164
CCC(=O)O[C@H]1CC[C@H]2[C@@H]3CCC4=CC(=O)CC[C@]4(C)[C@H]3CC[C@]12C [Testosterone propionate]	inactive: -0.531
O=P1(N(CCCl)CCCl)NCCCO1 (stereo not given) [Cyclophosphamide]	inactive: 0.625
C[C@]12COC(=O)C[C@@H]1CC[C@@H]1[C@@H]2CC[C@@]2(C)[C@H]1CC[C@]2(C)O [Oxandrolone]	inactive: 0.162

SMILES	light-induced TopBP1 condensate (z-score)
CN1C(=O)CCS(=O)(=O)C1c1ccc(Cl)cc1 (stereo not given) [Chlormezanone]	inactive: 0.503
COC[C@@H](NC(C)=O)C(=O)NCc1ccccc1 [Lacosamide]	inactive: -0.609
C[C@]12C/C(=C/O)C(=O)C[C@@H]1CC[C@@H]1[C@@H]2CC[C@@]2(C)[C@H]1CC[C@]2(C)O [Oxymetholone]	inactive: -1.66
CC(=O)[C@H]1CC[C@H]2[C@@H]3CC[C@H]4C[C@H](O)CC[C@]4(C)[C@H]3C(=O)C[C@]12C [Alfaxalone]	inactive: 1.06
C=C1C[C@@H]2[C@H](CC[C@]3(C)C(=O)CC[C@@H]23)[C@@]2(C)C=CC(=O)C=C12 [Exemestane]	inactive: -0.706
COc1ccc(C(CN(C)C)C2(O)CCCCC2)cc1 (stereo not given) [Venlafaxine]	inactive: 1.09
CCN(CC)CCOC(=O)C(O)(c1ccccc1)c1ccccc1 [Benactyzine hydrochloride]	inactive: -0.745
CNC(=O)Oc1ccc2c(c1)[C@]1(C)CCN(C)[C@@H]1N2C [Eserine hemisulfate salt]	inactive: -0.639
CN(C)C(=O)Oc1cccc([N+](C)(C)C)c1 [Neostigmine bromide]	inactive: 0.607
CC(C)(N)Cc1ccccc1 [Phentermine hydrochloride]	inactive: 0.682
CCNCC(O)c1cccc(O)c1 (stereo not given) [Etilefrine hydrochloride]	inactive: 0.748
CC(C)C[C@H]1C(=O)N2CCC[C@H]2[C@]2(O)O[C@](NC(=O)[C@@H]3C=C4c5cccc6[nH]c(Br)c(c56)C[C@H]4N(C)C3)(C(C)C)C(=O)N12 [Bromocryptine mesylate]	inactive: 1.17
CN1[C@@H]2CC[C@H]1C[C@@H](OC(=O)C(CO)c1ccccc1)C2 (stereo not given in full) [Atropine sulfate monohydrate]	inactive: -0.15
C[C@]12CCC(=O)C(O)=C1CC[C@@H]1[C@@H]2CC[C@]2(C)C(=O)CC[C@@H]12 [Formestane]	inactive: 0.41
CNC(C)(C)Cc1ccccc1 [Mephentermine hemisulfate]	inactive: -0.167
NCCCNCCSP(=O)(O)O [Amifostine]	inactive: 0.691
CC1OC(OC2/C=C/C=C/C=C/C=C/CC/C=C/C=C/[C@H](C)[C@@H](O)[C@@H](C)[C@H](C)OC(=O)CC(O)CC(O)CC(O)CCC(O)C(O)C[C@]3(O)CC(O)C(C(=O)O)C(C2)O3)C(O)C(N)C1O (stereo not given in full) [Nystatine]	inactive: 0.546
O=c1[nH]c2ccccc2n1C1CCN(CCCC(c2ccc(F)cc2)c2ccc(F)cc2)CC1 [Pimozide]	inactive: -1.48
C#CCN(C)[C@H](C)Cc1ccccc1 [Selegiline hydrochloride]	inactive: -0.225
CN(C)C(=O)Oc1ccc[n+](C)c1 [Pyridostigmine iodide]	inactive: -0.114
C[C@]12CC[C@@H](O)C[C@H]1CC[C@@H]1[C@@H]2CC[C@]2(C)C(=O)CC[C@@H]12 [3-alpha-Hydroxy-5-beta-androstan-17-one]	inactive: -0.529
